Data: PubChem BioAssay (NCI)
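1) Cells in 96-well plates. 2) Compound, 48 h, 5 concentrations. 3) Linear interpolation between surrounding doses. 4) Unreached endpoint = highest concentration. At the GI50, growth is halved. The concentration for full growth arrest is given as TGI.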

What follows are compounds tested on NCI-H322M lung (assay: growth of human tumour cells (NCI), 48 h).

Structure (SMILES)	GI50 [µM]	TGI [µM]
CCn1c(SCC(=O)Nc2cccc(C(=O)/C=C/c3cc(OC)c(OC)c(OC)c3)c2)nc2ccccc2c1=O	3.58	> 100
C#Cc1nc(C(=O)NCCC(=O)Nc2ccc(NC(=O)c3ccc(/C=C/C(=O)c4nccn4C)cc3)cc2)cs1	3.53	> 50
COc1ccccc1NC1=C(Cl)C(=O)c2nc(C)ccc2C1=O	2.5	7.69
